Out of some 120,000 compounds screened, about 5,300 (4.4%) were called active. Inconclusive results, whose numbers are uncertain, are shown with a selection of clear calls. The call rests on the fitted dose curve; in most records, active means well fitted inhibition curve with a large enough effect; inconclusive means small, poorly fitted or top-dose-only effect; inactive means no such curve, though single readings can be large or run the other way. Potencies of inconclusive entries are doubtful fits and often do not repeat.
Assay: qHTS Primary assay for Inhibitors of Plasmodium falciparum Dd2 growth in vitro; further: nearly all actives have a fitted effect of over 65% in size;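 on activity, negative = inhibition: plate controls were DMSO vehicle for no effect and reference drug for full effect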
Details: P. falciparum Dd2 growth, SYBR Green, 72 h; activity, negative = inhibition: at 28.9 µM (top of the series) unless noted; series mostly up to 28.9 µM
In short: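 Readout: SYBR Green fluorescence, 485 nm excitation, 535 nm emission, after ~16 h lysis at 37C. Before that, Dd2-infected red cells (2.5% hematocrit) grew 72 h with compound, 29 uM top final concentration.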
Potency means the concentration at half of the fitted maximal effect; tags describe the fitted curve by direction and shape.

SMILES | Potency | activity, negative = inhibition | outcome
CCc1[nH]c2c(CNC(=O)C3(C)CCCCO3)cc(F)cc2c1C (stereo not given) | inconclusive: 20 µM [inhibitor, single point] |  | 
CCN1c2cc(C(=O)Nc3ccccc3OC)ccc2C(=O)N2CCCCCC21 (stereo not given) | inconclusive: 3.98 µM [inhibitor, single point] |  | 
CC1CCN(CC2CCCCCN2C(=O)Nc2ccc3c(c2)OCCO3)CC1 (stereo not given) | inconclusive: 3.98 µM [inhibitor, single point] |  | 
CCOC(=O)c1ccc(NC(=O)C2CC(=O)NC(=Nc3ccc(C)c(C)c3)S2)cc1 (stereo not given) | inconclusive: 17.8 µM [inhibitor, single point] |  | 
CCc1nc2c(c(-c3ccc(OC)cc3)n1)CN([S+](=O)([O-])c1cccs1)CC2 |  | inconclusive: -117% [inhibitor] | 
COc1ccccc1CNC(=O)Cn1c(=O)oc2cc(S(=O)(=O)N3CCCC3)ccc21 | inconclusive: 20 µM [inhibitor, single point] |  | 
COCCOCC1(CNCC2CCCC2)C[C@@H](O)[C@@H](O)C1 (stereo not given in full) | inconclusive: 31.6 µM [inhibitor, single point] |  | 
CN(C)C(=O)c1nc(-c2ccc(Cl)cc2Cl)c2cnccn12 | active: 10 µM |  | 
CCOC(=O)c1cnn(-c2ccc(C(=O)Nc3ccc(OC(F)(F)F)cc3)cc2)c1N | inconclusive: 3.98 µM [inhibitor, full curve, poor fit] |  | 
CC(=O)Nc1ccc(CN2CCN(c3cc(Cl)ncn3)C(=O)C2)cc1 | inconclusive: 7.08 µM [inhibitor, partial curve, poor fit] |  | 
Cc1ccc(S(=O)(=O)NC[C@H]2C[C@@H]3CCN2C[C@@H]3CN2CCN(c3ccccn3)CC2)cc1 | inconclusive: 17.8 µM [inhibitor, partial curve, poor fit] |  | 
Cc1ccc2c(C)c(C(=O)N(C)Cc3noc4c3CCCC4)oc2c1 |  | inactive: -28.3% | 
CCCOCC(=O)N1CCCC(c2cc(N3CCOCC3)nc(C)n2)C1 (stereo not given) |  | inactive: 7.12% | 
Cn1c(=O)n(C)c2cc(CNCCc3ccc(F)cc3)ccc21 | inconclusive: 7.94 µM [inhibitor, partial curve] |  | 
Cc1ccc(NC(=O)C2CCN(S(=O)(=O)c3c(C)noc3C)CC2)cc1 |  | inactive: -11.1% | 
O=C(Nc1cccnc1)c1cnc2c(c1)N(Cc1ccccc1)CCC2 | inconclusive: 20 µM [inhibitor, partial curve, poor fit] |  | 
CNC(=O)[C@@H](Cc1ccccc1)N1CCC[C@H]1C(=O)NC1CC1 |  |  | inactive [at 44.1 µM]
O=c1c2nc(OCc3ccc(C(F)(F)F)cc3)ccc2ncn1C1CC1 | inconclusive: 2.51 µM [inhibitor, full curve] |  | 
CSc1ccc(CNC(=O)c2cc3c(s2)CCN(C(=O)c2ccccc2)C3)cc1 | inconclusive: 12.6 µM [inhibitor, partial curve, poor fit] |  | 
Cc1ccc(NC(=O)Cn2cc(C(=O)c3ccccc3)c3ccccc32)cc1 | inconclusive: 0.0891 µM [inhibitor, full curve, poor fit] |  | 
CC(C)Sc1nc2sc3c(c2c(=O)n1Cc1ccccc1)CCCC3 | inconclusive: 0.282 µM [inhibitor, full curve, poor fit] |  | 
CCc1ccc(S(=O)(=O)c2nnn3c2nc(NC2CCCC2)c2ccccc23)cc1 | inconclusive: 10 µM [inhibitor, single point] |  | 

SMILES | Potency | activity, negative = inhibition | outcome
O=[S+]1([O-])NC2(CCN(CC3CCCC3)CC2)COc2ccccc21 |  | inconclusive: -144% [inhibitor] | 
Cc1c(Cl)cccc1NC(=O)CCCn1nc(C)c2sc3ccccc3c2c1=O | inconclusive: 0.0316 µM [inhibitor, full curve, poor fit] |  | 
COCCNC(=O)[C@H]1C[C@H](Oc2ccccc2)CN1Cc1cccn1C | inconclusive: 8.91 µM [inhibitor, partial curve, poor fit] |  | 
CCNC(=O)N(C1CC1)C1CCOC2(CCN(C(=O)c3nn(C)c4ccccc34)CC2)C1 (stereo not given) |  |  | inactive
O=C1NC2(CCN(C(=O)c3ccc(F)cc3)C2)Oc2ccccc21 (stereo not given) | inconclusive: 31.6 µM [inhibitor, single point] |  | 
O=C1CC(c2ccccc2)N(C(=O)CCc2ccccc2)CCCCCCN1 (stereo not given) | inconclusive: 7.94 µM [inhibitor, partial curve, poor fit] |  | 
COC(=O)C1=C(C)N=C2SC=C(CC(=O)Nc3ccc(OC)cc3)N2C1c1cccc(OC)c1 (stereo not given) | inconclusive: 2.82 µM [inhibitor, single point] |  | 
COc1nccnc1NC1CCN(S(=O)(=O)c2ccccc2)CC1 |  |  | inactive [at 5.79 µM]
COc1ccc(-c2noc(N3CCC(C(=O)N4CCN(c5ccccc5OC)CC4)CC3)n2)cc1 | inconclusive: 17.8 µM [inhibitor, single point] |  | 
Cc1noc(C)c1-c1cc2c(cc(C)n2CCN(C)C)c(-c2ccc(CO)cc2)n1 | inconclusive: 2.82 µM [inhibitor, partial curve, poor fit] |  | 
CCCCNS(=O)(=O)c1ccc2nc(-c3cccnc3)cc(C(=O)NCCCOC(C)C)c2c1 | inconclusive: 10 µM [inhibitor, single point] |  | 
Cc1ccsc1-c1[nH]nc2ncc(-c3ccccc3)nc12 | inconclusive: 0.282 µM [inhibitor, full curve, poor fit] |  | 
Cc1ccc(C(=O)N2CCC3(C2)C(=NC2CCCCC2)NC(=O)N3c2cccnc2)cc1 (stereo not given) |  | inactive: 16% | 
Cn1cc(CCCC(=O)Nc2ccc3c(c2)C(=O)N2CCC[C@H]2C(=O)N3)c2ccccc21 |  |  | inactive
CCOc1ccc(CCNC(=O)CCc2c(C)nc3c(c(C)nn3-c3ccc(C)c(C)c3)c2C)cc1 |  | inactive: 2.91% | 
CN(C)C[C@@H]1CN(c2ncccn2)C[C@H]1NC(=O)CCCc1ccccc1 | inconclusive: 7.94 µM [inhibitor, partial curve] |  | 
NC(=O)CN1CC2(CCC1=O)CCN(CC1CCCCO1)CC2 (stereo not given) |  | inactive: -6.18% | 
COc1ccc(Nc2nc(-c3cccc(Cl)c3)c3c(n2)-c2ccccc2OC3)cc1 | inconclusive: 11.2 µM [inhibitor, single point] |  | 
O=C(NCc1ccncc1)C1CN(S(=O)(=O)c2ccccc2)CC12CCCCC2 (stereo not given) | inconclusive: 17.8 µM [inhibitor, single point] |  | 
COc1ccc(-c2noc(-c3nnn4c3COC(c3ccc(Cl)cc3)C4)n2)c(OC)c1 (stereo not given) | inconclusive: 3.98 µM [inhibitor, single point] |  | 
COc1ccc(NC(=O)CSc2nc3nc(C)c(Cc4ccc(C)cc4)c(C)n3n2)cc1OC |  |  | inactive
COc1ccc(Cl)cc1-n1nnc(-c2nc(-c3ccc4c(c3)OCO4)no2)c1C |  | inactive: -1.98% | 

SMILES | Potency | activity, negative = inhibition | outcome
COc1ccccc1CNC[C@H]1O[C@@H]2C[C@@H](CC(=O)N3CCOCC3)O[C@@H]2[C@@H]1O |  | inactive: 21.2% [at 44.1 µM] | 
Cc1ccc(CNC(=O)c2ccc(-c3nnc4ccc(NC(=O)C5CCC5)cn34)cc2)cc1 | inconclusive: 2.82 µM [inhibitor, partial curve, poor fit] |  | 
COc1ccc(C(=O)N2CCOCC(O)(CN3CCCC3)C2)c(OC)c1 (stereo not given) |  | inactive: 10.2% | 
Cc1ccc(CN2CC[C@@H]3[C@H]2C(=O)NC[C@H](CCC(=O)Nc2ccccc2)N3C)cc1 | active: 11.2 µM |  | 
COc1cc(Cl)c(C)cc1NC(=O)c1cc2ccc3cccnc3c2[nH]1 | inconclusive: 7.08 µM [inhibitor, partial curve] |  | 
COc1ccccc1C1NC(=O)N(CCC(C)C)C2=C1C(=O)OC2 (stereo not given) | inconclusive: 11.2 µM [inhibitor, single point] |  | 
Clc1ccc(C2Cn3nnc(-c4noc(C5(c6ccccc6)CC5)n4)c3CO2)cc1 (stereo not given) | inconclusive: 8.91 µM [inhibitor, partial curve] |  | 
CCCCN1CC(c2nc3ccccc3n2CCCCOc2ccc(C)cc2C)CC1=O (stereo not given) | inconclusive: 14.1 µM [inhibitor, single point] |  | 
COCCn1c(C)cnc1CCNS(=O)(=O)c1cccc(OC)c1 | inconclusive: 5.62 µM [inhibitor, partial curve, poor fit] |  | 
CCc1ccc(NC(=O)c2cc(S(=O)(=O)N3CCCCCC3)ccc2F)cc1 | inconclusive: 17.8 µM [inhibitor, single point] |  | 
CN(C)CCN1CC[C@H]2CN(S(=O)(=O)c3ccccc3)CC[C@H]2CC1=O |  | inactive: -10.5% [at 44.1 µM] | 
O=C(Cn1cccc1-c1nc(-c2ccc3c(c2)OCO3)no1)Nc1ccc(F)c(F)c1 | inconclusive: 10 µM [inhibitor, partial curve, poor fit] |  | 
CN1c2cc(C(=O)Nc3ccc(OC(F)(F)F)cc3)ccc2C(=O)N2CCCCC21 (stereo not given) | inconclusive: 11.2 µM [inhibitor, partial curve, poor fit] |  | 
CN1CCC(O)(CCn2cnc(-c3ccccc3)c2-c2ccsc2)CC1 | inconclusive: 20 µM [inhibitor, single point] |  | 
COc1ccccc1NC(=O)C(=O)c1cc(C)n(-c2ccccc2F)c1C | inconclusive: 17.8 µM [inhibitor, single point] |  | 
Cc1ccc(-c2nccc3c(=O)cc(-c4cn[nH]c4)oc23)cc1 |  | inactive: -24.9% [at 44.1 µM] | 
O=C1C(O)C2(CCCCC2)N1C1CCN(Cc2ccc(F)c(F)c2)CC1 (stereo not given) | inconclusive: 4.47 µM [inhibitor, partial curve, poor fit] |  | 
O=C(NCc1cccc(F)c1)N1CCCC(Cn2cnc3cccnc32)C1 (stereo not given) |  | inactive: -14.3% | 
O=C(NCc1cccc(F)c1)N1CCC(N2CC3CC(C2)[C@H]2CCCC(=O)N2C3)CC1 (stereo not given in full) |  |  | inactive
CCn1ncc(N2CCC(NC(=O)c3ccc(OC)cc3C)CC2)cc1=O |  | inactive: -11.3% | 
COc1cccc(NC(=O)/C(C#N)=C\c2cn(Cc3ccc(C)cc3)c3ccccc23)c1 | inconclusive: 17.8 µM [inhibitor, single point] |  | 
